Data from the GPR68 mutational scans of Howard et al. (2025).
Scores whose standard error is large were omitted. Not listed are two conditions whose scores span a narrow range. Read del as a deletion of the residues named and ins as an insertion between two positions. For some of these results: The data file names ogerin without a concentration.

B1: GPR68, Q15743 (parent)
chain: MGNITADNSSMSCTIDHTIHQTLAPVVYVTVLVVGFPANCLSLYFGYLQIKARNELGVYLCNLTVADLFYICSLPFWLQYVLQHDNWSHGDLSCQVCGILLYENIYISVGFLCCISVDRYLAVAHPFRFHQFRTLKAAVGVSVVIWAKELLTSIYFLMHEEVIEDENQHRVCFEHYPIQAWQRAINYYRFLVGFLFPICLLLASYQGILRAVRRSHGTQKSRKDQIQRLVLSTVVIFLACFLPYHVLLLVRSVWEASCDFAKGVFNAYHFSLLLTSFNCVADPVLYCFVSETTHRDLARLRGACLAFLTCSRTGRAREAYPLGAPEASGKSGAQGEEPELLTKLHPAFQTPNSPGSGGFPTGRLA

Assays:
[1] = variants of: B1; assay: cAMP reporter score (Enrich2 score, wild type = 0); higher = more signal; HEK293T, FACS bins
[2] = variants of: B1; assay: surface expression score (Enrich2 score, wild type = 0); higher = more signal; HEK293T, FACS bins

| Variant | cAMP reporter score ([1]; pH 5.5) | cAMP reporter score ([1]; pH 6) | cAMP reporter score ([1]; pH 6, modulator: ogerin) | cAMP reporter score ([1]; pH 6.5, modulator: ogerin) | surface expression score [2] |
| --- | --- | --- | --- | --- | --- |
| MGNITADNSSMSCTIDHTIHQTLAPVVYVTVLVVGFPANCLSLYFGYLQIKARNELGVYLCNLTVADLFYICSLPFWLQYVLQHDNWSHGDLSCQVCGILLYENIYISVGFLCCISVDRYLAVAHPFRFHQFRTLKAAVGVSVVIWAKELLTSIYFLMHEEVIEDENQHRVCFEHYPIQAWQRAINYYRFLVGFLFPICLLLASYQGILRAVRRSHGTQKSRKDQIQRLVLSTVVIFLACFLPYHVLLLVRSVWEASCHFAKGVFNAYHFSLLLTSFNCVADPVLYCFVSETTHRDLARLRGACLAFLTCSRTGRAREAYPLGAPEASGKSGAQGEEPELLTKLHPAFQTPNSPGSGGFPTGRLA [D259H] | 0.124 | 0.64 | 0.654 | -1.55 | -0.274 |
| MGNITADNSSMSCTIDHTIHQTLAPVVYVTVLVVGFPANCLSLYFGYLQIKARNELGVYLCNLTVADLFYICSLPFWLQYVLQHDNWSHGDLSCQVCGILLYENIYISVGFLCCISVDRYLAVAHPFRFHQFRTLKAAVGVSVVIWAKELLTSIYFLMHEEVIEDENQHRVCFEHYPIQAWQRAINYYRFLVGFLFPICLLLASYQGILRAVRRSHGTQKSRKDQIQRLVLSTVVIFLACFLPYHVLLLVRSVWEASCIFAKGVFNAYHFSLLLTSFNCVADPVLYCFVSETTHRDLARLRGACLAFLTCSRTGRAREAYPLGAPEASGKSGAQGEEPELLTKLHPAFQTPNSPGSGGFPTGRLA [D259I] | 0.335 |  | 0.105 | -1.2 | -0.082 |
| MGNITADNSSMSCTIDHTIHQTLAPVVYVTVLVVGFPANCLSLYFGYLQIKARNELGVYLCNLTVADLFYICSLPFWLQYVLQHDNWSHGDLSCQVCGILLYENIYISVGFLCCISVDRYLAVAHPFRFHQFRTLKAAVGVSVVIWAKELLTSIYFLMHEEVIEDENQHRVCFEHYPIQAWQRAINYYRFLVGFLFPICLLLASYQGILRAVRRSHGTQKSRKDQIQRLVLSTVVIFLACFLPYHVLLLVRSVWEASCKFAKGVFNAYHFSLLLTSFNCVADPVLYCFVSETTHRDLARLRGACLAFLTCSRTGRAREAYPLGAPEASGKSGAQGEEPELLTKLHPAFQTPNSPGSGGFPTGRLA [D259K] | 0.409 | -1.29 | 0.199 | -0.373 | -1.26 |
| MGNITADNSSMSCTIDHTIHQTLAPVVYVTVLVVGFPANCLSLYFGYLQIKARNELGVYLCNLTVADLFYICSLPFWLQYVLQHDNWSHGDLSCQVCGILLYENIYISVGFLCCISVDRYLAVAHPFRFHQFRTLKAAVGVSVVIWAKELLTSIYFLMHEEVIEDENQHRVCFEHYPIQAWQRAINYYRFLVGFLFPICLLLASYQGILRAVRRSHGTQKSRKDQIQRLVLSTVVIFLACFLPYHVLLLVRSVWEASCLFAKGVFNAYHFSLLLTSFNCVADPVLYCFVSETTHRDLARLRGACLAFLTCSRTGRAREAYPLGAPEASGKSGAQGEEPELLTKLHPAFQTPNSPGSGGFPTGRLA [D259L] | 0.496 | -0.112 | 0.806 | 0.335 | -0.713 |
